The whole screen tested about 340,000 compounds, of which about 12,000 (3.5%) were called active. Inconclusive results, whose numbers are uncertain, are shown with a selection of clear calls. The call rests on the fitted dose curve; in most records, active means well fitted inhibition curve with a large enough effect; inconclusive means small, poorly fitted or top-dose-only effect, or another doubt; inactive means no such curve, though single readings can be large or run the other way. No potency is given beside an inconclusive call; the fits are too rough.
test: qHTS Assay for Inhibitors of Hepatitis C Virus (HCV); conditions: Huh7.5.1 HCVcc-Cre (HCVcc is cell-culture hepatitis C virus) infection, luciferase reporter, 44 h; activity change, negative = inhibition: at 41.8 µM (top of the series)
Summary of the method: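 Whole-lifecycle infectious HCVcc-Cre system; cells 1,000/well, compound then virus (~0.5 moi) added 4 h after plating, 44 h culture. Luciferase read 15 sec following 15 min substrate incubation, room temp.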
On the % scale 0 is the no-effect control and ±100 the full control effect; potency means the concentration at half of the fitted maximal effect; tags describe the fitted curve by direction and shape.

Structure (SMILES) | Potency | activity change, negative = inhibition
CSCCC(NS(=O)(=O)c1ccc2c(c1)oc(=O)n2C)C(=O)NC1CCC(C)CC1 (stereo not given) | inactive | –
CCOc1cc(CNCCO)cc(Br)c1OCc1cccs1 | active: 5.62 µM | –
C=C(C)COc1ccc(-c2nc(N)nc(C(F)(F)F)c2-c2ccc(OC)cc2)c(O)c1 | inconclusive [inhibitor, single point] | –
Fc1ccc(-c2cnc3n2CCCCC3)cc1 | inconclusive [inhibitor, partial curve] | –
CCc1cc2c(=O)n(CC(C)C)cnc2s1 | inconclusive [inhibitor, partial curve] | –
CCc1ccc(Oc2coc3cc(OCC(=O)Nc4cc(C)ccc4C)ccc3c2=O)cc1 | inconclusive [inhibitor, full curve, poor fit] | –
Cc1cccc(C(=O)O[C@@H]2[C@H](Cc3ccccc3)NS(=O)(=O)[C@H]3C[C@@H]4C=C[C@]23O4)c1 | – | inactive: -15.8%
O=C(NCc1nnc(SCc2ccccc2)n1-c1ccccc1)C12CC3CC(CC(C3)C1)C2 | inconclusive [inhibitor, single point] | –
C[C@@H]1CN([C@@H](C)CO)C(=O)Cc2cc(NC(=O)Nc3ccc(F)cc3)ccc2O[C@@H]1CN(C)Cc1ccc(Cl)c(Cl)c1 | inconclusive [inhibitor, single point] | –
CCc1ccc(NC(=O)c2c(C(=O)Nc3ccccc3)sc3nc(C)cc(=O)n23)cc1 | inconclusive [inhibitor, full curve, poor fit] | –
CCC(C)NC(=O)CN(c1ccc(Cl)c(Cl)c1)S(C)(=O)=O (stereo not given) | – | inactive: -8.5%
Cc1cc(C(=O)OCC(=O)Nc2c(F)cccc2F)c(C)n1-c1ccccc1 | inconclusive [inhibitor, single point] | –
COc1ccc(-n2nnnc2SCC(=O)c2ccc3c(c2)OCCO3)c(OC)c1 | inconclusive [inhibitor, partial curve] | –
CN(C)c1cc[n+](CC(=O)c2ccc(Br)cc2)cc1 | – | inactive: -10.5%
Cc1cccc(-n2c(O)c(/C=C3/C(c4ccccc4)=Nc4ccccc43)c(=O)[nH]c2=O)c1 | inconclusive [inhibitor, partial curve] | –
Cc1nc2scc(-c3ccccc3)c2c(=O)n1N=C1C=CC(=O)C=C1 | inconclusive [inhibitor, single point] | –
CN(c1ccccc1)S(=O)(=O)c1ccc(C(=O)Nc2ncccc2O)cc1 | – | inactive: 16.1%
O=C(Nc1cccc(Cl)c1)c1ccc(NCCCN2CCOCC2)c([N+](=O)[O-])c1 | active: 10 µM | –
CCOC(=O)Cc1csc(NC(=O)CSc2ccc(Br)cc2)n1 | inconclusive [inhibitor, single point] | –
CNc1nc(SC(C)C(=O)Nc2ccc(Cl)c(Cl)c2)nc(N2CCOCC2)n1 (stereo not given) | inconclusive [inhibitor, single point] | –
CC(C)CC(CO)N1CCN(C(=O)c2cccc(Cl)c2)CCC1=O (stereo not given) | inconclusive [inhibitor, single point] | –
Cc1cc(C)nc(NC(N)=NC2CCCCC2)n1 | inconclusive [inhibitor, single point] | –
O=C(CN1CCC(n2nnc3cc(C(F)(F)F)ccc32)CC1)NCc1cccs1 | – | inactive: -18.5%

Structure (SMILES) | Potency | activity change, negative = inhibition
O=C(COC(=O)c1cc(-c2cccs2)nc2ccccc12)NC1CCS(=O)(=O)C1 (stereo not given) | inconclusive [inhibitor, single point] | –
CCOc1ccc(C(=O)Nc2nnc(NC(=S)Nc3ccccc3)s2)cc1 | inconclusive [inhibitor, single point] | –
Cc1ccc2[nH]c(CNC(=O)c3ccc(F)cc3)cc2c1 | – | inactive: -1.12%
CCOC(=O)c1sc(NC(=O)CCC(=O)O)nc1C | inconclusive [inhibitor, single point] | –
C=CCn1c(C)cc(C(=O)CN2C(=O)c3ccccc3S2(=O)=O)c1C | – | inactive: 19.2%
NNC(=S)Nc1ccccc1Cl | – | inactive: -23.5%
O=Cc1c(-c2ccccc2)nc2ccccn12 | – | inactive: 4.63%
CCOC(=O)c1ccc2[nH]c3c(c2c1)CCCC3 | – | inactive: 6.76%
O=C(/C=C/c1ccccc1)N1CCN(c2ccc([N+](=O)[O-])c(N3CCOCC3)c2)CC1 | inconclusive [inhibitor, partial curve, poor fit] | –
COCCCNc1nc(-c2ccc(Cl)cc2)nc2ccccc12 | active: 12.6 µM | –
Cc1nn(-c2ccccc2)c2sc(C(=O)N3CCc4ccccc4C3)cc12 | inconclusive [inhibitor, partial curve, poor fit] | –
Cc1ccc(-n2c(C)cc(C(=O)COC(=O)c3c(C)noc3C)c2C)cc1 | active: 0.316 µM | –
O=C(Nc1cccc2c1[nH]c1ccccc12)C(F)(F)F | inconclusive [inhibitor, partial curve] | –
CCCc1nc2sc3c(c2c(=O)n1NC(=O)CCCl)CCCC3 | inconclusive [inhibitor, single point] | –
COc1cc2c(cc1NC(=O)COC(=O)[C@@H](NC(=O)c1ccccc1F)C(C)C)oc1ccccc12 | inconclusive [inhibitor, partial curve] | –
O=C(COC(=O)c1cc(=O)[nH]c2ccccc12)Nc1ccc(F)cc1 | – | inactive: 1%
CC1CCCN(Cc2ccc(OCc3ccccc3)cc2)C1 (stereo not given) | inconclusive [inhibitor, single point] | –
CCOC(=O)C1(CC2CCCCO2)CCN(Cc2cn[nH]c2-c2cccc(F)c2)CC1 (stereo not given) | inconclusive [inhibitor, single point] | –
CCOc1ccc(OCC(=O)Nc2ccccc2N2CCCC2)cc1 | inconclusive [inhibitor, partial curve] | –
CCN(CC)CCSc1nnc2c3ccccc3n(Cc3ccccc3)c2n1 | active: 11.2 µM | –
N/C(=N\OC(=O)Cc1ccc([N+](=O)[O-])cc1)c1ccccn1 | inconclusive [inhibitor, partial curve] | –
O=C(NCc1c(Cl)cccc1Cl)c1ccc2nnsc2c1 | – | inactive: -24.8%

Source: PubChem BioAssay AID651820 (National Center for Advancing Translational Sciences (NCATS), 2012)
